From PubChem BioAssay AID1347073 (National Center for Advancing Translational Sciences (NCATS), 2019)
About 200 (0.44%) of roughly 45,000 compounds were called active. Inconclusive results (about 7%) are left out. Calls come from the whole dose curve; as a rule, active = well fitted activation curve with a large enough effect; inconclusive = small, poorly fitted or top-dose-only effect; inactive = no such curve, though single readings can be large or run the other way. The list shows a part of the results.

Experiment: qHTS of TDP-43 Inhibitors: NCGC Sytravon Library Screen; note: 0% is about no effect; nearly all actives have a fitted effect of over 55% in size
Conditions: yeast TDP-43 toxicity rescue, BacTiter-Glo growth, 24 h; series mostly up to 46.1 µM; growth rescue (activation): at the top concentration
Method in brief: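 TDP-43-expressing yeast, pregrown in raffinose, seeded at OD600 0.02 in galactose medium with compound for 24 hr at 30 deg C. Growth read by BacTiter-Glo luminescence, so rescue of toxicity appears as activation.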

SMILES	growth rescue (activation)
CCN(CC)S(=O)(=O)c1ccc(C)c(NC(=O)COC(=O)[C@@H]2CCCN2C(=O)c2cccs2)c1	inactive: 11.3%
COc1ccccc1/C=C/C(=O)Nc1ccc2c(c1)CCC2	inactive: 12%
CN=C1NN=C(c2cc(C)n(-c3c(C)n(C)n(-c4ccccc4)c3=O)c2C)CS1	inactive: 0.473%
CC1(C(=O)NS(=O)(=O)c2ccc(Cl)cc2)CCN1C(=O)c1ccccc1 (stereo unspecified)	inactive: 20.3%
Cc1ccc2nc(SCC(=O)Nc3cccc(S(=O)(=O)N(C)C)c3)[nH]c2c1	inactive: 6.14%
CC(CC(=O)Nc1ccc2c(c1)c(=O)n(C)n2Cc1cccc(C(F)(F)F)c1)C(F)(F)F (stereo unspecified)	inactive: 14%
COc1cc(/C=N/NC(=O)c2ccc(Cl)c(S(N)(=O)=O)c2)ccc1OCC(N)=O	inactive: 7.94%
Cc1ccc(Nc2nc(NCCO)c3ccccc3n2)cc1C	inactive: 16.2%
CC(C)(C)c1nnc(NC(=O)COc2ccc3c(c2)OCO3)s1	inactive: -15.5%
Clc1ccc(-c2csc(Nc3ccccc3)[n+]2Cc2ccco2)c(Cl)c1	inactive: 35.6%
CC1CCCC(NC(=O)CSc2n[nH]c(N)n2)C1C (stereo unspecified)	inactive: 23.6%
Cc1ccc(N(C(=O)c2snc(C(N)=O)c2N)C(C(=O)NC2CCCC2)c2ccncc2)cc1 (stereo unspecified)	inactive: -6.79%
CCCCNC(=O)COC(=O)c1cc(C)oc1C	inactive: 6.75%
O=C(Cn1ccc2ccccc2c1=O)NCC(=O)N1CCN(c2ccccc2F)CC1	inactive: 7.82%
CCn1c(C)cc(/C=C2/SC(=S)NC2=O)c1C	inactive: 3.23%
CCn1cc(C(=O)O)c(=O)c2cc(F)c(N3CCN(C(=S)NC(=O)c4ccc(F)cc4)CC3)cc21	inactive: -7.62%
O=C(NC1CCCCC1)C1CCCN1S(=O)(=O)c1ccc(F)cc1 (stereo unspecified)	inactive: 15.5%
COC(=O)c1cc(COC(=O)c2nc3nccc(C)n3n2)oc1C	inactive: 9.91%
N#Cc1c(Cl)nc(N/N=C/c2ccccc2)c(Cl)c1Cl	inactive: 17.7%
CCOc1ccc(CCNc2nc3ccc(C)cc3n3cnnc23)cc1OCC	inactive: 24.3%
NS(=O)(=O)c1ccc(CCNC(=O)CN2C(=O)NC(c3ccccc3)(c3ccccc3)C2=O)cc1	inactive: 12.9%
CN(C)C(CNC(=O)CCCN1C(=O)c2cccc3cccc(c23)C1=O)c1ccccc1 (stereo unspecified)	inactive: -6.68%

SMILES	growth rescue (activation)
O=S1(=O)NC(=NCCOCCO)c2ccccc21	inactive: -6.82%
O=c1cc(CSc2ccc(Cl)cc2)nc(-c2ccccc2)[nH]1	inactive: -0.611%
O=C(Cn1c(=O)n(Cc2ccc(F)cc2)c(=O)c2ccccc21)NCC1CCCO1 (stereo unspecified)	inactive: -9.39%
O=c1c2c([nH]c3ccccc13)CCCCC2	inactive: -4.02%
NC(Cc1ccc(F)cc1)c1csc(Nc2cc(NCc3ccco3)ncn2)n1 (stereo unspecified)	inactive: 14.6%
CCN1CCN(c2nc3ccccn3c(=O)c2/C=C(\C#N)S(=O)(=O)c2ccccc2)CC1	inactive: 0.404%
CCOCCCn1c(SCc2ccccc2)nnc1-c1ccncc1	inactive: 6.22%
O=C(NC1=C(Nc2ccc(F)cc2)C(=O)c2ccccc2C1=O)c1ccc(Cl)cc1	inactive: 8.38%
Cc1c(NC(=O)CN2CCN(c3cccc(Cl)c3)CC2)c(=O)n(-c2ccccc2)n1C	inactive: -5.09%
COc1cccc(C(Nc2ccccn2)c2oc(CO)cc(=O)c2O)c1 (stereo unspecified)	inactive: 3.79%
Cc1ccc2nc(/C(C#N)=C\c3ccc(Oc4ccc(C(F)(F)F)cc4[N+](=O)[O-])cc3)[nH]c2c1	inactive: 22.8%
COCCC(=O)N1CCc2c([nH]c3ccccc23)C1C(C)(C)C (stereo unspecified)	inactive: 12%
Cc1cnc(C(=O)Nc2ccc(S(=O)(=O)NCC(C)C)cc2)cn1	inactive: 2.15%
CCCC(=O)N1CCCC1(C)C(=O)Nc1cc(OC)c(OC)c(OC)c1 (stereo unspecified)	inactive: 1.17%
CCc1nc2ccc(C(=O)Nc3ccc4c(c3)OCC(=O)N4)cn2c1N(CC)Cc1cccc(Br)c1	inactive: -11.6%
CCOC(=O)CC(NC(=O)CCc1c(C)nc2ncnn2c1C)c1ccc(OC(C)C)cc1 (stereo unspecified)	inactive: 7.88%
CC1(c2ccccc2Br)NC(=O)N(CC(=O)N2CCc3ccccc3C2)C1=O (stereo unspecified)	inactive: 12%
COc1ccc(CNC(=O)C2CCC(CNS(=O)(=O)c3cccs3)CC2)cc1 (stereo unspecified)	inactive: 15.1%
Cc1ccccc1-n1c(SCC(=O)N2CCN(c3ccccn3)CC2)nnc1N1CCOCC1	inactive: 6.58%
Cc1ccc(S(=O)(=O)N(C)CC(=O)N2CCN(Cc3ccccc3)CC2)cc1	inactive: -5.77%
O=C(NC(c1ccc(-c2ccccc2)cc1)c1cnccn1)C1CCN(CCOc2ccc(F)cc2)CC1 (stereo unspecified)	inactive: 7.79%
O=C(CN(C(=O)c1csnn1)c1ccc(Cl)cc1)NCCc1ccccc1	inactive: 2.42%

SMILES	growth rescue (activation)
O=C(Cc1cccs1)Nc1nc(-c2ccc(F)c(F)c2)cs1	inactive: 4.25%
COc1ccc(C(=O)OCC(=O)C(C)(C)C)cc1S(=O)(=O)N(C)CCc1cccnc1	inactive: -16.8%
O=C(NCc1ccccn1)c1cc(S(=O)(=O)N2CCCCCC2)ccc1Cl	inactive: 28%
CCc1ccccc1NC(=O)C1(S(=O)(=O)c2ccc(C)cc2)CC1	inactive: 20.6%
O=C(COC(=O)[C@@H]1CC(O)CN1S(=O)(=O)c1ccc(Cl)c(Cl)c1)NC(=O)NCc1ccccc1 (stereo partly specified)	inactive: -3.88%
CCOc1ccc(NC(=O)NCCN2CCN(c3ccccc3F)CC2)cc1	inactive: 6.27%
CCN(Cc1nc(-c2ccccc2)no1)C(=O)c1ccco1	inactive: 33.1%
COc1ccc(O)c(/C=N/Nc2nc3ccccc3[nH]2)c1	inactive: 12.3%
Nn1c(SCc2ccc(Br)cc2)nnc1-c1ccccn1	inactive: -18.6%
Cc1nc(SCC(=O)NC2CCCC2)c2c(C)c(C)sc2n1	inactive: 14.2%
C=CCNC(=O)NC(=O)COC(=O)c1nc2nccc(C)n2n1	inactive: 1.77%
C/C(=N\NC(=O)CNC(=O)c1ccco1)c1ccc(Br)cc1	inactive: 8.29%
CC(C)(CN1CCc2ccccc2C1)NS(=O)(=O)c1ccc(Cl)cc1	inactive: 5.37%
Cc1noc(C(=O)NC2CCCCC2)c1Cl	inactive: -7.11%
O=C(NC1CCOc2ccccc21)c1ccc(=O)[nH]c1 (stereo unspecified)	inactive: -17.1%
Cc1ccc(C(=O)N2CCOCC2)cc1S(=O)(=O)N1CCCC1	inactive: 3.99%
CC1Cc2ccccc2N1S(=O)(=O)c1cccc(C(=O)NCCCn2ccnc2)c1 (stereo unspecified)	inactive: 1.05%
O=C(COc1ccccc1)Nc1nnc(COc2ccccc2)s1	inactive: 26.1%
Cc1ccc([N+](=O)[O-])cc1S(=O)(=O)N1CCCN(C)CC1	inactive: 10.7%
O=C(N/N=C1\CCCc2oc(C(=O)O)cc21)c1ccccc1	inactive: 4.96%
C=CCN1C(=O)/C(=c2\sc3nc(=O)c(Cc4ccc(OC)c(OC)c4)nn3c2=O)c2ccccc21	inactive: -7%
COc1ccc(CSCC(=O)Nc2ccccc2)cc1[N+](=O)[O-]	inactive: 18.7%
